{"source": "the supplement of paper PMC10185492", "note": "This is one part of the list. Read counts after selection give these values, which scatter widely."}
{"tested_on": "SARS-CoV-2 3CLpro (nsp5)", "assay": "substrate phage enrichment score (protease-eluted vs HEPES control, +1 offset) (ratio); higher = better cleaved substrate", "settings": "selection round: 4; protease elution time: 15 min", "procedure": "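Random heptapeptide substrate phage display (M13 pIII fusion, heptapeptide between an N-terminal biotinylated AviTag GLNDIFEAQKIEWHE and pIII; phages immobilised on streptavidin) eluted by cleavage with 50 nM protease in 20 mM HEPES at 37 °C. Selected phages were NGS sequenced, and the enrichment score is (reads in protease sample + 1)/(reads in HEPES blank-selection control + 1).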"}
{"substance": "EAPACTK", "substrate phage enrichment score": 0.114}
{"substance": "SRPAQLQ", "substrate phage enrichment score": "> 87"}
{"substance": "CGLTCDR", "substrate phage enrichment score": 0.087}
{"substance": "QTNPISR", "substrate phage enrichment score": 2.14}
{"substance": "SDESRLH", "substrate phage enrichment score": "> 42"}
{"substance": "KNRTMLQ", "substrate phage enrichment score": "> 94"}
{"substance": "ARHGEAH", "substrate phage enrichment score": "> 26"}
{"substance": "SRHSLET", "substrate phage enrichment score": 29.5}
{"substance": "ATRCVSK", "substrate phage enrichment score": 10}
{"substance": "QTPGPGL", "substrate phage enrichment score": 1.41}
{"substance": "RPSALTH", "substrate phage enrichment score": 3}
{"substance": "KSCPLAA", "substrate phage enrichment score": 12.5}
{"substance": "RTVPLNR", "substrate phage enrichment score": 3.5}
{"substance": "HMKRSPS", "substrate phage enrichment score": 2.67}
{"substance": "MKNPAHN", "substrate phage enrichment score": 16.7}
{"substance": "GHESHEP", "substrate phage enrichment score": 7.75}
{"substance": "LDTSFQG", "substrate phage enrichment score": "> 25"}
{"substance": "EIGCRLM", "substrate phage enrichment score": "> 26"}
{"substance": "VWPRGPQ", "substrate phage enrichment score": "> 54"}
{"substance": "NTTLQSN", "substrate phage enrichment score": "> 28"}
{"substance": "VAFELRP", "substrate phage enrichment score": 0.222}
{"substance": "HEQYFQG", "substrate phage enrichment score": 38}
{"substance": "THVCGPR", "substrate phage enrichment score": "> 47"}
{"substance": "PESRGII", "substrate phage enrichment score": "> 34"}
{"substance": "HSWLNAC", "substrate phage enrichment score": 1.94}
{"substance": "CWWTPHH", "substrate phage enrichment score": "> 22"}
{"substance": "SATPTLQ", "substrate phage enrichment score": 20}
{"substance": "MPRCTQS", "substrate phage enrichment score": 4.17}
{"substance": "SNARGDR", "substrate phage enrichment score": 2.57}
{"substance": "RLGHGLN", "substrate phage enrichment score": 0.611}
{"substance": "AGDIDMR", "substrate phage enrichment score": "> 22"}
{"substance": "YIPLSGR", "substrate phage enrichment score": 9.25}
{"substance": "PRSPSMN", "substrate phage enrichment score": 1.8}
{"substance": "QQSLICR", "substrate phage enrichment score": "> 75"}
{"substance": "GYFQGGS", "substrate phage enrichment score": 0.65}
{"substance": "GSITTPN", "substrate phage enrichment score": "> 81"}
{"substance": "DRSQNPL", "substrate phage enrichment score": 0.167}
{"substance": "TNVPFLM", "substrate phage enrichment score": "> 29"}
{"substance": "TRTDSLQ", "substrate phage enrichment score": "> 27"}
{"substance": "KQSDTVI", "substrate phage enrichment score": "> 32"}
{"substance": "WTAAHHH", "substrate phage enrichment score": 0.708}
{"substance": "LNKQSFM", "substrate phage enrichment score": 11.5}
{"substance": "PESSHSS", "substrate phage enrichment score": 4.22}
{"substance": "RSEHKAQ", "substrate phage enrichment score": 1.9}
{"substance": "LNQHMRS", "substrate phage enrichment score": 8}
{"substance": "KSSPPAH", "substrate phage enrichment score": "> 292"}
{"substance": "EERYFQG", "substrate phage enrichment score": 2.14}
{"substance": "RFDPYGR", "substrate phage enrichment score": "> 40"}
{"substance": "CRRSIRD", "substrate phage enrichment score": 0.588}
{"substance": "LKTTCKE", "substrate phage enrichment score": 0.211}
{"substance": "PTAAHHH", "substrate phage enrichment score": 0.961}
{"substance": "TKCPTRS", "substrate phage enrichment score": 4.9}
{"substance": "WAALCPN", "substrate phage enrichment score": 6}
{"substance": "PHIHLRD", "substrate phage enrichment score": "> 44"}
{"substance": "VTTLHSM", "substrate phage enrichment score": 14.5}
{"substance": "RHSDLLG", "substrate phage enrichment score": 2.14}
{"substance": "HRQRDHR", "substrate phage enrichment score": "> 24"}
{"substance": "GQPTTSA", "substrate phage enrichment score": "> 24"}
{"substance": "THESDEM", "substrate phage enrichment score": 0.333}
{"substance": "LTGVDCA", "substrate phage enrichment score": 58}
{"substance": "TRRPAQQ", "substrate phage enrichment score": 32.5}
{"substance": "KNELSPD", "substrate phage enrichment score": "> 24"}
{"substance": "TADAEIY", "substrate phage enrichment score": 19.3}
{"substance": "IEHDLRQ", "substrate phage enrichment score": 0.3}
{"substance": "FDSAAHH", "substrate phage enrichment score": "> 29"}
{"substance": "LRTSGCQ", "substrate phage enrichment score": "> 42"}
{"substance": "EPYFQGG", "substrate phage enrichment score": 1.75}
{"substance": "CDYPKLQ", "substrate phage enrichment score": 16}
{"substance": "SVRLQSG", "substrate phage enrichment score": "> 678"}
{"substance": "GRLGCRR", "substrate phage enrichment score": 24.5}
{"substance": "RPSSSME", "substrate phage enrichment score": 1.85}
{"substance": "VNLTTPK", "substrate phage enrichment score": 0.388}
{"substance": "LNGVRVQ", "substrate phage enrichment score": 3.11}
{"substance": "RRWQMDS", "substrate phage enrichment score": "> 25"}
{"substance": "RSAPTTT", "substrate phage enrichment score": 1.52}
{"substance": "IHGDLKA", "substrate phage enrichment score": 0.667}
{"substance": "VKTKDQG", "substrate phage enrichment score": "> 22"}
{"substance": "GPTTELM", "substrate phage enrichment score": 11.9}
{"substance": "TQRRENA", "substrate phage enrichment score": 0.0741}
{"substance": "VGIFRLV", "substrate phage enrichment score": 5.25}
{"substance": "LENKVEQ", "substrate phage enrichment score": "> 53"}
{"substance": "AFQGRSG", "substrate phage enrichment score": 4.75}
{"substance": "SAPAHHH", "substrate phage enrichment score": 0.625}
{"substance": "TTEQGMS", "substrate phage enrichment score": "> 90"}
{"substance": "QVRLQSH", "substrate phage enrichment score": "> 51"}
{"substance": "KSSRPGL", "substrate phage enrichment score": 1.89}
{"substance": "TDRANDA", "substrate phage enrichment score": 1.91}
{"substance": "YCHVLTV", "substrate phage enrichment score": 2}
{"substance": "STSWSCM", "substrate phage enrichment score": "> 32"}
{"substance": "QNNTELL", "substrate phage enrichment score": 0.136}
{"substance": "QATRLQS", "substrate phage enrichment score": "> 121"}
{"substance": "SRLQLHT", "substrate phage enrichment score": "> 24"}
{"substance": "VTRCVLQ", "substrate phage enrichment score": 8.25}
{"substance": "LTGDKYG", "substrate phage enrichment score": "> 29"}
{"substance": "DHRPKVT", "substrate phage enrichment score": "> 72"}
{"substance": "SCENLNW", "substrate phage enrichment score": 1.26}
{"substance": "SGGYGNN", "substrate phage enrichment score": "> 143"}
{"substance": "TNKCYTP", "substrate phage enrichment score": "> 42"}
{"substance": "SQIGSPQ", "substrate phage enrichment score": 1.88}
{"substance": "LTTGGIR", "substrate phage enrichment score": "> 21"}
{"substance": "QRGQPNV", "substrate phage enrichment score": 5.29}
{"substance": "ESQAVLQ", "substrate phage enrichment score": 82.6}
{"substance": "ASSCDGT", "substrate phage enrichment score": 13}
{"substance": "AGQFQPT", "substrate phage enrichment score": 2.46}
{"substance": "DLNSPAA", "substrate phage enrichment score": 1.6}
{"substance": "KTDGRHT", "substrate phage enrichment score": 26}
{"substance": "DATLQGL", "substrate phage enrichment score": 3.57}
{"substance": "HMMREPP", "substrate phage enrichment score": "> 27"}
{"substance": "NSLHPMR", "substrate phage enrichment score": "> 24"}
{"substance": "AQLSEHR", "substrate phage enrichment score": "> 106"}
{"substance": "MWAPQHR", "substrate phage enrichment score": 6.67}
{"substance": "QAKPKDV", "substrate phage enrichment score": 7.5}
{"substance": "LGAAHHH", "substrate phage enrichment score": 0.375}
{"substance": "STGDGPT", "substrate phage enrichment score": 0.1}
{"substance": "NSTTGSS", "substrate phage enrichment score": 3.22}
{"substance": "CEDTRNS", "substrate phage enrichment score": "> 32"}
{"substance": "HEKHDVK", "substrate phage enrichment score": 14.3}
{"substance": "SAWLQGD", "substrate phage enrichment score": "> 50"}
{"substance": "WQYESGA", "substrate phage enrichment score": 2.38}
{"substance": "TRLPTLQ", "substrate phage enrichment score": "> 25"}
{"substance": "CGRTSSS", "substrate phage enrichment score": 0.78}
{"substance": "ESTLGTH", "substrate phage enrichment score": "> 23"}
{"substance": "VSWNCDC", "substrate phage enrichment score": 4.71}
{"substance": "ATARDAL", "substrate phage enrichment score": 2}
{"substance": "AVLLQSR", "substrate phage enrichment score": "> 178"}
{"substance": "VQDLSLI", "substrate phage enrichment score": 21.5}
{"substance": "NRIDAYG", "substrate phage enrichment score": 1}
{"substance": "KSAMKDA", "substrate phage enrichment score": 0.438}
{"substance": "AKPTQLH", "substrate phage enrichment score": "> 31"}
{"substance": "ANRQCVP", "substrate phage enrichment score": 3.4}
{"substance": "WDVHGQD", "substrate phage enrichment score": "> 29"}
{"substance": "QALLQCI", "substrate phage enrichment score": "> 23"}
{"substance": "ATYTWQG", "substrate phage enrichment score": "> 24"}
{"substance": "LTEKGMI", "substrate phage enrichment score": 1.2}
{"substance": "TATTGLT", "substrate phage enrichment score": 6.25}
{"substance": "NAHQSQR", "substrate phage enrichment score": 3.33}
{"substance": "TELKPTL", "substrate phage enrichment score": "> 21"}
{"substance": "DAVNGEC", "substrate phage enrichment score": 0.946}
{"substance": "SAAAHHK", "substrate phage enrichment score": 1.47}
{"substance": "DCRLNEC", "substrate phage enrichment score": "> 33"}
{"substance": "FSPQTSQ", "substrate phage enrichment score": "> 55"}
{"substance": "RARQWSG", "substrate phage enrichment score": 2.37}
{"substance": "NEETEQR", "substrate phage enrichment score": "> 25"}
{"substance": "SSCSSHR", "substrate phage enrichment score": "> 27"}
{"substance": "RCGSKQQ", "substrate phage enrichment score": "> 23"}
{"substance": "EKNTTLQ", "substrate phage enrichment score": 438}
{"substance": "GHLRPHD", "substrate phage enrichment score": 0.281}
{"substance": "AHEWREH", "substrate phage enrichment score": 0.324}
{"substance": "PRSTAYG", "substrate phage enrichment score": 0.474}
{"substance": "LRYEKTP", "substrate phage enrichment score": 2.58}
{"substance": "RTMCREQ", "substrate phage enrichment score": 3.5}
{"substance": "PTTELRA", "substrate phage enrichment score": "> 23"}
{"substance": "SDCRSRH", "substrate phage enrichment score": 11}
{"substance": "KYEQYIN", "substrate phage enrichment score": 5}
{"substance": "NAQPSKY", "substrate phage enrichment score": 1.43}
{"substance": "RYPTYSR", "substrate phage enrichment score": 2.22}
{"substance": "ELSANTH", "substrate phage enrichment score": 21.5}
{"substance": "PCMRVKP", "substrate phage enrichment score": 6.17}
{"substance": "TQAEDYR", "substrate phage enrichment score": 10.2}
{"substance": "SAAPHHH", "substrate phage enrichment score": 0.985}
{"substance": "LYLQGGS", "substrate phage enrichment score": 1.35}
{"substance": "AHRHYVG", "substrate phage enrichment score": 8}
{"substance": "VHGVKLQ", "substrate phage enrichment score": "> 38"}
{"substance": "PPHEITR", "substrate phage enrichment score": "> 41"}
{"substance": "VSKTTLQ", "substrate phage enrichment score": "> 81"}
{"substance": "HPESQRG", "substrate phage enrichment score": 3.29}
{"substance": "PCQLCQD", "substrate phage enrichment score": "> 27"}
{"substance": "HRGGPSA", "substrate phage enrichment score": 12.5}
{"substance": "LTGNYGR", "substrate phage enrichment score": 4.36}
{"substance": "SPHCSSA", "substrate phage enrichment score": 6.33}
{"substance": "PTNEGLM", "substrate phage enrichment score": 3.82}
{"substance": "CAHRFKR", "substrate phage enrichment score": "> 40"}
{"substance": "KFTHTER", "substrate phage enrichment score": 5.71}
{"substance": "EWRCVLQ", "substrate phage enrichment score": 81.5}
{"substance": "VLLMHST", "substrate phage enrichment score": 7.33}
{"substance": "RATLKSQ", "substrate phage enrichment score": "> 32"}
{"substance": "RASLTGR", "substrate phage enrichment score": 2.67}
{"substance": "YYRPDWD", "substrate phage enrichment score": "> 27"}
{"substance": "DTCPRPN", "substrate phage enrichment score": 0.444}
{"substance": "AVKHRNR", "substrate phage enrichment score": 6}
{"substance": "KHMRPSR", "substrate phage enrichment score": 9.83}
{"substance": "KRGTTPC", "substrate phage enrichment score": 1.35}
{"substance": "AAAAHHH", "substrate phage enrichment score": 1.13}
{"substance": "HALPKPP", "substrate phage enrichment score": "> 29"}
